Measurements from PubChem BioAssay AID493208 (National Center for Advancing Translational Sciences (NCATS), 2011).
Screen size: about 44,000 compounds; about 340 (0.77%) were called active. Another 5% or so got no clear call; they are omitted. The call rests on the fitted dose curve; in most records, active means well fitted inhibition curve with a large enough effect; inconclusive means small, poorly fitted or top-dose-only effect; inactive means flat fitted curve, though single readings scatter. Some of the results follow.

Experiment: Acumen qHTS Assay for Inhibitors of the mTORC1 Signaling Pathway in MEF (Tsc2-/-, p53-/-) Cells: Sytravon;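 further: plate controls were DMSO for no effect and rapamycin for full effect; nearly all actives have a fitted effect of over 50% in size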
Settings: phospho-rpS6 immunofluorescence/PI, 24 h; series mostly up to 38.3 µM; activity change, negative = inhibition: at the top concentration
Outline: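 Tsc2-/-, p53-/- mouse embryonic fibroblasts (empty-vector line) exposed to compound 24 hrs at 37 C, fixed, immunostained for phospho-rpS6 and counterstained with propidium iodide. Acumen laser scanning gives % positive cells from Alexa 488/PI ratio, thresholded using 7.5 nM rapamycin; PI count gives viability.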

Activity change, negative = inhibition, inactive:
Cc1ccc(S(=O)(=O)C(CNC(=O)C(=O)NCCc2ccc(Cl)cc2)c2ccco2)cc1 (stereo not given) -0.525%
Cc1ccc(N2CCN(C(=O)c3cccn4c(=O)c5ccc(Cl)cc5nc34)CC2C)cc1 (stereo not given) -0.424%
Cc1ccc(Nc2nc(N)nc(CSc3nc4ccccc4s3)n2)cc1 1.39%
COc1ccc(C(CNC(=O)c2oc3cc(C)c(C)cc3c2C)N2CCCCC2)cc1 (stereo not given) 3.08%
CCn1cc(C(=O)N2CCN(c3ccccc3)CC2)c(=O)c2cc(S(=O)(=O)N(C)C)ccc21 -3.75%
Cc1c2cnn(CC(=O)NCc3ccc(Cl)cc3)c(=O)c2c(C)n1Cc1ccc(F)cc1 2.53%
O=C(Cc1ccc(F)cc1)NCCc1csc2nc(-c3ccccc3F)nn12 5.72%
COc1ccc(CCNS(=O)(=O)c2c(C)nc3sccn3c2=O)cc1OC 2.65%
Cc1cc(NS(=O)(=O)c2ccc(NC(=O)COc3ccccc3Br)cc2)no1 -0.102%
Cc1ccccc1Nc1nn2c(=O)c3ccc(C(=O)NCc4cccs4)cc3nc2s1 -3.04%
Cc1cc(C)cc(NC(=O)CSc2ccc(-c3cccs3)nn2)c1 -3.79%
CC(=O)Nc1ccc(C)cc1-c1nc2ccccc2n(CC(=O)c2ccc(C)c(C)c2)c1=O 2.33%
CN1CCN(c2nc3c(S(=O)(=O)c4ccc(Cl)cc4)nnn3c3ccsc23)CC1 3.49%
COc1ccc(S(=O)(=O)n2nc(C)c(S(=O)(=O)N3CCCCCC3)c2C)cc1C 5.01%
O=C(NCCc1csc(-c2ccc(C(F)(F)F)cc2)n1)C(=O)Nc1ccc(F)c(Cl)c1 -1.24%
CCOC(=O)c1c(N)n(-c2ccc(CC)cc2)c2nc3ccccc3nc12 -15.7%
O=C(CN1C(=O)CSc2ccc(S(=O)(=O)N3CCOCC3)cc21)NCCCN1CCCCC1 11.8%
Cc1ccc(C)c(NC(=O)Cn2c(SCC(=O)NCc3ccccc3)nc3ccccc32)c1 12.1%
Cc1ccc(N(CC(=O)N2CCN(c3ccccc3)CC2)S(=O)(=O)c2c(C)noc2C)cc1 -9.38%
Cc1nc(-c2ccc(F)cc2)sc1CCNC(=O)c1cccs1 -4.04%
CC(=O)N1CCOc2cc(S(=O)(=O)NCc3ccccc3Cl)c(Cl)cc21 -4.42%
CCc1ccc(NC(=O)Cn2c(=O)n(-c3ccccc3C)c(=O)c3c2c2cc(OC)ccc2n3C)cc1 1.95%
COc1ccc(NC(=O)CSc2nc3ccccc3nc2N2CCCCC2)cc1 -0.512%
CCOC(=O)c1ccccc1NC(=O)N1CCC(CN2CCOCC2)CC1 -1.61%
CCOc1ccc(NC(=O)Cn2nc3c(cc2=O)CC(C)CC3)cc1 (stereo not given) -3.61%
CCOC(=O)c1[nH]c2c(c1Cc1ccccc1)C(=O)CC(c1ccccc1)C2 (stereo not given) 1.16%
CCN1CCN(C(c2ccccc2Cl)c2sc3nc(-c4ccco4)nn3c2O)CC1 (stereo not given) -0.615%
CCOc1ccc(N(CC(=O)Nc2ccc(OC)cc2)S(=O)(=O)c2ccc(Cl)cc2)cc1 1.81%
Cc1ccc(-c2noc(-c3nnn(CC(=O)Nc4ccc(C)c(Cl)c4)c3N)n2)cc1 -0.705%
CC(C)Oc1ccc(C(=O)NCC(c2ccc(N(C)C)cc2)N2CCc3ccccc32)cc1 (stereo not given) 0%
Cc1ccc2c(C)c(C(=O)N(Cc3ccc(N(C)C)cc3)Cc3ccco3)oc2c1C 5.46%
O=C(CCSCCc1ccccn1)Nc1ccc(Cl)cc1 0.449%
CCN(c1ccccc1)S(=O)(=O)c1nnc(NC(=O)C2CCCCC2)s1 -2.83%
COc1ccc2c(c1)c(N1CCCC1=O)c(C(=O)Nc1cc(C)c(Cl)cc1OC)n2C -0.157%
CCn1c(=O)c2sccc2n2c(CCC(=O)Nc3ccc(F)cc3)nnc12 -14.2%
Cc1ccc2c(c1)cc1c(=O)n(Cc3ccccc3Cl)nc(C)n12 2.29%
COc1ccc(-c2onc(C)c2C)cc1S(=O)(=O)NCCc1ccccc1 0.43%
Oc1c(C(c2ccccc2)N2CCCC2)sc2nc(-c3ccco3)nn12 (stereo not given) -13.5%
CCOC(=O)Cc1ccc(NC(=O)NC(C)c2c(-n3cccc3)sc(C)c2C)cc1 (stereo not given) -0.356%
CCOC(=O)c1c(C)[nH]c(CCC(=O)NCc2cc(OC)c(OC)c(OC)c2)c1C 5.29%
COc1cc(-n2c(=O)c3ccccc3n(Cc3cccc(Cl)c3)c2=O)cc(OC)c1OC 5.45%
COc1ccc(CCN2C(=O)N(c3cccc(OC)c3)C(=O)C2CC(=O)Nc2ccccc2)cc1 (stereo not given) -4.34%
Cc1cc2oc(=O)c(CC(=O)O)c(C)c2c2occ(-c3ccccc3)c12 7.55%
Cc1ccc(C)c(Cn2c(=O)n(-c3ccccc3)c(=O)c3c4c(sc32)CCCC4)c1 3.24%
CCNC(=O)CC1C(=O)N(c2ccc(C)cc2)C(=O)N1CCOC (stereo not given) -9.27%
COc1ccc(CNC(=O)CN2C(=O)CCn3nc(-c4cn(C)c5ccccc45)cc32)cc1 -3.25%
O=C(c1ccc2c(c1)N(Cc1cccc(Cl)c1)C(=O)c1ccccc1S2=O)N1CCC(Cc2ccccc2)CC1 (stereo not given) -3.41%
O=C(c1cccc([N+](=O)[O-])c1)N1CCN(c2ccc(Nc3ccccc3)nn2)CC1 -8.64%
CCOC(=O)c1c(S(=O)(=O)N2CCC(C(=O)Nc3ccc(C)c(Cl)c3)CC2)c(C)n(C)c1C 2.16%
CCn1nc(C)c2c(-c3ccccc3)cc(=O)n(C(C)C(=O)NCCc3ccc(Cl)cc3)c21 (stereo not given) -25.4%
O=S(=O)(c1ccc(-c2cnc(C3CC3)o2)cc1)N1CCN(c2ccc(F)cc2)CC1 -22.2%
CCOc1ccc(NC(=O)CCCn2c(C)c3cnn(-c4ccccc4)c(=O)c3c2C)cc1 -4.58%
COc1ccc(OC)c(NC(=O)CSC2=Nc3ccccc3C3=NC(CC(=O)NCCc4ccccc4)C(=O)N23)c1 (stereo not given) 0.751%
CCOc1cccc(CNCCCSc2nnnn2C)c1 0.939%
COc1ccc(-c2cc(C(F)(F)F)n3nc(C(=O)Nc4cc(C)ccc4C)cc3n2)cc1 3.37%
Cc1ccc2c(c1)c1c3n2CCN(C(=O)c2ccc(C(F)(F)F)cc2)C3CCC1 (stereo not given) 4.32%
CC1=C(C(=O)OCc2ccc(C)cc2)C(c2cccc(F)c2F)CC(=O)N1 (stereo not given) -3.13%
CCOC(=O)c1sc2ccccc2c1S(=O)(=O)N1CCN(c2cc(C)ccc2C)CC1 -16.3%
COc1ccc(OCC(=O)Nc2ccc3nn(-c4ccc(OC)cc4)nc3c2)cc1 -6.98%
COc1ccc(CCNC(=O)c2cc3c(=O)oc4ccc(C)cc4c3s2)cc1OC -3.48%
